Whole data set: some 18,000 sequences, median “TetR repression strength (sort-seq, GFP reporter)” near 0.23, cut for the highest 2% near 0.68. This is one part of the list.

This note sets out measurements from a collection of fitness landscapes (doi:10.1038/s41467-024-54723-y).

The target of this assay is TetR (class B, Tn10) (UniProt P04483). Description: TetR repression strength (sort-seq, GFP reporter) (relative to tetO2 = 1); higher = stronger repression. To be noted: E. coli. The procedure, abridged: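 Repression strength was calculated by subtracting the read-weighted mean bin from the top bin index plus one and dividing by the unaltered operator's value. The plasmid library was low-copy in E. coli SIG10-MAX, with eight randomized operator positions between a constitutive promoter and sfGFP and constitutive TetR. Cultures grew 5 h at 37 °C in LB containing 50 µg/mL chloramphenicol before 10^6 cells were sorted by FACS into 13 fluorescence bins, each sequenced on Illumina. Three independent transformations were averaged for members having ≥30 reads in all replicates and a CV ≤0.5.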
Chain of UniProt P04483 (P04483 whole entry): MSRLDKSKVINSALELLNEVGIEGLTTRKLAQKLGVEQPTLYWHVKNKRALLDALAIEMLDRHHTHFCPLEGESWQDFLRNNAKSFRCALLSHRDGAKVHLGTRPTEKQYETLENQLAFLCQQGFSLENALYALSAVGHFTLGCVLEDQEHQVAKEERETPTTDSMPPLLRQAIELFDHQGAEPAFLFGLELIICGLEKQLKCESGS
Take TCCCATTTAGTGGCCGAGA: the TetR repression strength amounted to 0.261.

As to TCCCAGTCAGTAGTAGAGA, the TetR repression strength worked out at 0.216.

In turn, TCCCCGGGAGTCCGGGAGA gave a TetR repression strength of 0.332.

TCCCTGAAAGTCGTTGAGA displayed a TetR repression strength of 0.186.

TCCCGTGTAGTACTCGAGA: the TetR repression strength was found to be 0.244.

As for TCCCTTTCAGTTAAAGAGA, the TetR repression strength was determined as 0.442.

TCCCCTCGAGTGTGGGAGA came in with a TetR repression strength of 0.239.

TCCCTCCCAGTTGGAGAGA registered a TetR repression strength of 0.26.

Sequence TCCCTGATAGTATGTGAGA returned a TetR repression strength of 0.125.

In the case of TCCCATCAAGTTGACGAGA, the TetR repression strength came to 0.0444.

For the sequence TCCCTGCGAGTGGTGGAGA, the TetR repression strength was found to be 0.112.

TCCCTTATAGTAGCGGAGA yielded a TetR repression strength of 0.21.

With TCCCACCTAGTATATGAGA, the TetR repression strength came out at 0.466.

TCCCGCCGAGTTGCGGAGA showed a TetR repression strength of 0.372.

Take TCCCGGGGAGTTGGTGAGA: the TetR repression strength came out at 0.239.

Regarding TCCCGTTGAGTGCGGGAGA, the TetR repression strength came to 0.441.

The sequence TCCCTGTGAGTTGGGGAGA gave a TetR repression strength of 0.189.

For the sequence TCCCCGCAAGTAGCGGAGA, the TetR repression strength was 0.188.

As to TCCCAGAGAGTTATGGAGA, the TetR repression strength was 0.155.

For the sequence TCCCACCTAGTGAGCGAGA, the TetR repression strength came out at 0.304.

The sequence TCCCACTGAGTGAGAGAGA came in with a TetR repression strength of 0.473.

For TCCCGCAGAGTGTGGGAGA, the TetR repression strength was 0.134.

The sequence TCCCTGATAGTTTTTGAGA returned a TetR repression strength of 0.233.

TCCCTAGCAGTGTTCGAGA returned a TetR repression strength of 0.319.

On to TCCCTCGAAGTGGGCGAGA, for which the TetR repression strength is 0.116.

Consider TCCCTCCCAGTGATAGAGA, for which the TetR repression strength was found to be 0.561.

For TCCCTATCAGTGCCTGAGA, the TetR repression strength was determined as 0.467.

The sequence TCCCGAGAAGTGGAAGAGA had a TetR repression strength of 0.257.

Sequence TCCCGTCTAGTCATCGAGA returned a TetR repression strength of 0.488.

TCCCTGACAGTTCGCGAGA gave a TetR repression strength of 0.263.

In turn, TCCCGGTCAGTTTAGGAGA returned a TetR repression strength of 0.27.

TCCCAGTTAGTTTATGAGA gave a TetR repression strength of 0.198.

Take TCCCGGATAGTTAGCGAGA: the TetR repression strength was 0.326.

The sequence TCCCATGGAGTCCAGGAGA had a TetR repression strength of 0.0821.

TCCCCGATAGTCGACGAGA: the TetR repression strength is 0.0424.

TCCCGTTTAGTCCGGGAGA: the TetR repression strength came to 0.119.

In turn, TCCCTAGCAGTTGCAGAGA had a TetR repression strength of 0.275.

With TCCCTATCAGTGGATGAGA, the TetR repression strength worked out at 0.64.

For the sequence TCCCGGTAAGTGTTAGAGA, the TetR repression strength was determined as 0.561.

Consider TCCCTAGTAGTGTTCGAGA, for which the TetR repression strength came out at 0.273.

Sequence TCCCGGACAGTAAAGGAGA gave a TetR repression strength of 0.345.

Sequence TCCCATCGAGTGGAGGAGA came in with a TetR repression strength of 0.155.

For TCCCGAGGAGTGCTCGAGA, the TetR repression strength was 0.126.

In the case of TCCCTAGGAGTACGGGAGA, the TetR repression strength stood at 0.241.

TCCCGCTTAGTAAAGGAGA showed a TetR repression strength of 0.243.

With TCCCGGTCAGTCGAAGAGA, the TetR repression strength is 0.278.

Turning to TCCCGTATAGTCTGTGAGA, the TetR repression strength was found to be 0.0605.

For TCCCCTCGAGTTGAGGAGA, the TetR repression strength was found to be 0.19.

In turn, TCCCTTTCAGTGTTTGAGA returned a TetR repression strength of 0.382.

Turning to TCCCGGGTAGTCCTGGAGA, the TetR repression strength came to 0.22.

In the case of TCCCGCCAAGTAGGGGAGA, the TetR repression strength was 0.194.

Consider TCCCAGTCAGTAGGGGAGA, for which the TetR repression strength was found to be 0.497.

Regarding TCCCTAGAAGTGCCGGAGA, the TetR repression strength came out at 0.0889.

TCCCACTAAGTTGGTGAGA had a TetR repression strength of 0.339.

Consider TCCCATTGAGTGCGTGAGA, for which the TetR repression strength was 0.164.

TCCCCTCTAGTGTAAGAGA: the TetR repression strength stood at 0.155.

For the sequence TCCCGGGAAGTCGTTGAGA, the TetR repression strength worked out at 0.207.

The sequence TCCCGATCAGTTAGGGAGA returned a TetR repression strength of 0.313.

For TCCCACGGAGTTACGGAGA, the TetR repression strength turned out to be 0.224.

In turn, TCCCAAAGAGTTTCGGAGA displayed a TetR repression strength of 0.191.

In the case of TCCCGACGAGTACAGGAGA, the TetR repression strength was 0.196.

In turn, TCCCGGTCAGTCTTGGAGA had a TetR repression strength of 0.281.

The sequence TCCCATCGAGTGGGGGAGA had a TetR repression strength of 0.207.

TCCCAGAGAGTTTGGGAGA returned a TetR repression strength of 0.202.

TCCCAAAAAGTTCGGGAGA had a TetR repression strength of 0.566.

The sequence TCCCGCTGAGTTGACGAGA gave a TetR repression strength of 0.0238.

In turn, TCCCGATAAGTGGGAGAGA showed a TetR repression strength of 0.389.

TCCCGTCAAGTCGTGGAGA showed a TetR repression strength of 0.227.

TCCCGACAAGTTGGCGAGA displayed a TetR repression strength of 0.19.

The sequence TCCCTTAAAGTGTGTGAGA displayed a TetR repression strength of 0.344.

TCCCGTTCAGTATGGGAGA: the TetR repression strength was 0.106.

TCCCTAAAAGTACTTGAGA registered a TetR repression strength of 0.104.

The sequence TCCCGCCGAGTCGGCGAGA displayed a TetR repression strength of 0.189.

Turning to TCCCCTTAAGTATGGGAGA, the TetR repression strength is 0.148.

TCCCCAAGAGTTGGTGAGA yielded a TetR repression strength of 0.116.

TCCCTTAAAGTGGCGGAGA yielded a TetR repression strength of 0.172.

TCCCCATGAGTCGTCGAGA returned a TetR repression strength of 0.214.

In turn, TCCCTAGGAGTGATGGAGA returned a TetR repression strength of 0.131.

TCCCTTTTAGTTCAGGAGA had a TetR repression strength of 0.417.

The sequence TCCCAATGAGTATTAGAGA registered a TetR repression strength of 0.265.

Sequence TCCCCGTCAGTGATTGAGA gave a TetR repression strength of 0.3.

On to TCCCAATTAGTGACTGAGA, for which the TetR repression strength is 0.316.

TCCCTGTTAGTTTCTGAGA displayed a TetR repression strength of 0.275.

Consider TCCCATCAAGTTCGTGAGA, for which the TetR repression strength was 0.148.

TCCCGCGCAGTTGCGGAGA displayed a TetR repression strength of 0.17.

In turn, TCCCAGGCAGTACAGGAGA yielded a TetR repression strength of 0.0568.

With TCCCTGCCAGTGGCGGAGA, the TetR repression strength was found to be 0.304.

The sequence TCCCTTACAGTGAGGGAGA registered a TetR repression strength of 0.177.

Take TCCCAGGGAGTTCTCGAGA: the TetR repression strength was determined as 0.205.

In the case of TCCCTAGTAGTCTGGGAGA, the TetR repression strength turned out to be 0.31.

Sequence TCCCGTACAGTAAGGGAGA showed a TetR repression strength of 0.18.

Sequence TCCCACACAGTAGTTGAGA came in with a TetR repression strength of 0.108.

In turn, TCCCAGGTAGTGTGGGAGA registered a TetR repression strength of 0.345.

TCCCGAAGAGTAATGGAGA registered a TetR repression strength of 0.153.

TCCCTTCTAGTGTAGGAGA registered a TetR repression strength of 0.235.

Sequence TCCCACAAAGTGGAGGAGA displayed a TetR repression strength of 0.12.

As to TCCCATCAAGTGACCGAGA, the TetR repression strength is 0.298.

For TCCCAAGAAGTGGGCGAGA, the TetR repression strength worked out at 0.176.

In turn, TCCCAGTTAGTATTGGAGA had a TetR repression strength of 0.207.

As to TCCCCGAGAGTTGTGGAGA, the TetR repression strength turned out to be 0.19.

In turn, TCCCGGAAAGTCACAGAGA showed a TetR repression strength of 0.108.

In turn, TCCCGGGAAGTGGCAGAGA had a TetR repression strength of 0.266.
